Source: the supplement of paper PMC3334620
In all, about 33,000 sequences were measured (“E-score (-0.5 to 0.5)”: median about -0.01, highest 2% from about 0.26 on). This is one part of the list.

What follows are sequences tested against Ste12 (UniProt P13574) (assay: PBM E-score (8-mer binding enrichment) (E-score (-0.5 to 0.5)); higher = stronger / more preferred TF binding; most listed sequences are background and not binding sites). Conditions: protein concentration: 200 nM; construct: GST-DNA-binding domain.
Outline: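 Full-length yeast transcription factors or their DNA-binding domains, GST-tagged and expressed with PURExpress, were applied at about 100-200 nM to universal all-10-mer Agilent arrays. These arrays had been made double-stranded by primer extension on fresh or once-stripped slides. Detection used fluorescent anti-GST, normalisation used masliner, and E-scores for ungapped eight-base words pooled with reverse complements came from the Universal PBM Analysis Suite.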

Sequence	PBM E-score
CTCATGGC	-0.0134
TAGCTATA	-0.037
GTTCCCGA	-0.024
GCCCTAAC	0.108
AAGGACTG	-0.0196
CTGATGCC	-0.189
CTTTCTCC	-0.142
CTAATCAC	-0.0504
ACTACATA	0.0675
GTCTCTAA	-0.0592
CCAAAGCC	-0.00501
CCGTCTAG	-0.238
ACACAGTC	-0.0563
AACCGCAA	0.0724
ATTGGACC	-0.111
ATTTGTCC	0.147
ATCAAGAG	0.0164
CAGCACCC	-0.201
GCTGGCAC	-0.231
ATGGAATC	0.0886
CTCACCAA	0.284
ACGTGCGA	-0.0195
AACCTCAT	0.0341
GCAACAGA	0.105
GGCTATAA	0.0888

Sequence	PBM E-score
AGATAGAT	-0.0472
ATCCTTAG	-0.167
ATCTCACG	-0.0754
ATCCCGCC	0.237
ACCACAGG	-0.19
ACCCGGAT	0.0819
CGGACCAG	-0.0842
ACACGGCG	0.0175
CAAAGCGC	-0.0374
CGCAATTC	0.0196
ACGCGTAA	-0.0603
AGGCTCAA	-0.306
ATGAATGG	0.33
GCATGCTA	-0.288
ACGACCCA	-0.00894
CGGCCACA	-0.122
GAACTTTA	-0.0478
CGGGCCTA	-0.107
GACGAGCC	-0.159
ATGTATAC	0.0553
CATTGATC	-0.0551
CATTTTCC	0.123
GGCACGCC	-0.313
CAAAAGGC	-0.0119
TTAAACAA	0.123

Sequence	PBM E-score
CATCCGGG	-0.0272
AATGAACA	0.0143
GTATACGA	0.122
GAATAGGA	0.126
ATCATCAT	0.0555
ACAGATAT	0.046
AAACTAAG	0.177
ACGTTTCG	0.297
CATCAAAA	0.221
GCCCGCAA	-0.12
AAAGGACT	-0.0451
GTTCGCCA	-0.119
ACACGCCA	0.00553
ACTCCCGC	-0.0261
ATGTAAAC	0.0539
CGGATCTA	0.0937
CTCTTACA	0.0491
CGGAGCAA	0.0115
TAGAGCGA	-0.0958
CCCCGACC	0.00951
CGGCAACA	0.219
AATAATGC	0.0962
CGTCACCA	-0.113
AAACCTGC	0.1
TACGCCTA	-0.192

Sequence	PBM E-score
AGAGTTTG	0.194
GGGTGTCA	0.0537
AGCTGTCC	-0.106
TACGAAAA	0.0919
ACTAAAAC	0.272
ACATGGCG	-0.274
ATAGGTAG	-0.131
AAGTTAAA	0.167
CCGCGACG	-0.0308
CTTCTGAA	0.256
ACGGGCTA	-0.245
GCTTGCAA	0.112
TAATCTCA	0.0346
AATTCTAC	0.0281
ACGATAAG	0.12
CCAGGGCC	-0.364
GGAATGGA	0.0113
AGACCGAG	-0.0414
GCGAATAA	0.0377
AAGTCCAG	-0.0966
AAAAAGAG	0.00475
CGGGACGA	0.0863
ACTTAAGC	-0.122
CTGAGAAC	0.0658
CAAATGTC	-0.0033

Sequence	PBM E-score
TCATTTCA	0.242
ATTGGCGC	-0.0374
CTGGGAAG	-0.113
AAAGGGCC	-0.136
CACTCGAC	-0.0692
ATGCACCC	-0.0626
AGCCCACA	-0.118
ACATGGAC	-0.00801
GGGGTATA	0.0753
CGGCATTC	0.00117
GGACAAAA	0.137
ACTGTCTG	-0.0281
AAATAGTA	0.0997
GTCAACAA	-0.0462
AGCCAGCC	-0.029
CCAAAACC	0.233
CAGATCCA	0.0637
CAGGTGAA	0.0581
CCAGCGAA	-0.0819
CGTGGGGC	-0.163
AAGCTAAT	0.0899
AGTTATCG	0.0444
CTGTGTAC	-0.126
ACCAACAT	0.125
GCCGCCTA	-0.179

Sequence	PBM E-score
CCGTACTC	-0.173
GGTCACCA	-0.278
CTATCGAG	-0.266
GCAGCACA	-0.124
GGCAGTAA	0.142
GCCGACAC	-0.0784
GAGGATTA	0.0342
GAACTTGC	-0.0993
CTTCGATA	0.0467
ACCCGGAG	0.0758
CATAAGAC	0.158
ATGGGTAG	-0.00405
TGACCGAA	0.0143
ACTGTAAA	0.194
AAACCAAA	0.255
CATGTACC	-0.073
GCCTGCCA	-0.136
AATGCTGT	-0.0241
AGGCTAAT	0.0389
CACGCTTA	-0.0966
CCCGAAAA	0.183
AGTGTGCC	-0.0376
CGGGGGTA	-0.0322
AACGCATT	0.118
ATCTTGAG	-0.0165

Sequence	PBM E-score
CAGGGCGA	-0.103
GGGACGAA	0.125
GGAGATAC	0.00973
CGTGACAA	0.215
CTTCCCGA	0.0932
CATCTTGA	-0.0295
ACTGACCG	0.0836
CAATGATG	0.058
CCCGGTGA	0.0547
GGATGGTA	-0.0271
GGACATTA	0.0628
ACGTAACC	0.0253
CGTCGCAG	0.0344
AGCCCAAC	-0.0608
AGTCATCA	-0.128
ATCGACTC	0.0417
GGTTCTGA	0.11
GCATGCGA	0.119
GCCGTGAC	0.0631
CGTTACGA	0.0942
ATAGGACG	-0.0881
AGCCACCT	-0.177
